# In all, about 33,000 sequences were measured (“E-score (-0.5 to 0.5)”: median about -0.032, highest 2% from about 0.36 on). Some of the results follow.
# Target: T1, Sko1 (UniProt Q02100)
# T1 sequence: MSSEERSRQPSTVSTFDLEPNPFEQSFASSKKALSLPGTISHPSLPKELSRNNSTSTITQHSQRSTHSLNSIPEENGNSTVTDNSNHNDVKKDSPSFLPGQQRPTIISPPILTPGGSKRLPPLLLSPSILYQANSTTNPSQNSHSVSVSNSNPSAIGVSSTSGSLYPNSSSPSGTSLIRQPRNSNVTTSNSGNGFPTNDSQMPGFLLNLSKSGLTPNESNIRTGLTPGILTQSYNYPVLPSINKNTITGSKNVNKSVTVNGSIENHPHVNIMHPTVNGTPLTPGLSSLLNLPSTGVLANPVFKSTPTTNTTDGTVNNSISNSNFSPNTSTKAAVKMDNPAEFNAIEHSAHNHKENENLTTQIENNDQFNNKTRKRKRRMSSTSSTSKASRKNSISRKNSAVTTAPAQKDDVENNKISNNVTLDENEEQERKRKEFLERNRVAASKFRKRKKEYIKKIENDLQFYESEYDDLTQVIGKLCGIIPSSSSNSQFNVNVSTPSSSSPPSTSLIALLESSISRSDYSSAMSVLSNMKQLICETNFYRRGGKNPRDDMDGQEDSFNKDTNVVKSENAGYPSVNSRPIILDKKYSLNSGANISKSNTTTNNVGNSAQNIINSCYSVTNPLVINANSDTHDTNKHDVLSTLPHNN
# Assay: PBM E-score (8-mer binding enrichment) (E-score (-0.5 to 0.5)); higher = stronger / more preferred TF binding; most listed sequences are background and not binding sites
# Settings: protein concentration: 200 nM; construct: GST-full length
# Procedure, shortened: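 Bound GST-tagged yeast transcription factors, applied at about 100-200 nM to double-stranded universal all-10-mer Agilent arrays, were detected with fluorescent anti-GST. Scans were normalised with masliner. A modified Wilcoxon-Mann-Whitney statistic, the E-score, was assigned to each ungapped eight-base word pooled with its reverse complement by the Universal PBM Analysis Suite.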
row,Sequence,PBM E-score
1,GGATGAGA,-0.121
2,CGTGGTGC,0.147
3,ATTGGTGA,0.0106
4,ATTACACA,0.283
5,GAGTTCAA,0.142
6,CCACATGC,0.0567
7,ACTTAGGG,-0.172
8,AAAGATTG,-0.183
9,CGGTTTGC,-0.12
10,GGGCGGCA,-0.339
11,CTGAATCC,0.0664
12,AGCCTCAG,-0.235
13,AGGAATCG,-0.0809
14,CCGAGCGG,-0.267
15,CATGGTGC,-0.11
16,GTCATTTA,0.353
17,AAGTTTAG,0.116
18,CACCGCGC,-0.039
19,AGGGTTTG,-0.161
20,ATCACACG,0.203
21,CGGTTTGA,-0.0856
22,ATTCTGAA,0.0223
23,CAGGAGCA,-0.202
24,CATCGTCC,0.0258
25,GCGGCCGA,-0.107

row,Sequence,PBM E-score
1,AAGACTGC,-0.0959
2,ACACAGCA,0.0577
3,AGCGACTG,0.0636
4,TAAATAGA,-0.00812
5,AACAGACA,-0.00885
6,AGATGCAA,-0.0244
7,AACAGCAG,-0.164
8,CAATTCCG,-0.184
9,GACAGACC,-0.103
10,AGATTCTC,-0.0717
11,ATCACGAC,0.148
12,GCACTTGA,0.14
13,CGTATCAA,0.261
14,AACAATAG,-0.138
15,CTGATCAG,0.00719
16,TGATTCCA,-0.0363
17,ACACCTTA,0.226
18,ATGCGCTC,-0.0166
19,CACATGTC,0.0673
20,ACATAAGA,0.232
21,ATTGTCGA,0.0238
22,AATGCAGG,-0.144
23,ATGCGCCG,-0.0817
24,AGTGCGCA,0.0799
25,CAGGAGCC,-0.259

row,Sequence,PBM E-score
1,ACTACGAT,0.194
2,GTGGCACA,-0.00841
3,AGGTTGGC,-0.171
4,AGTGTACC,-0.188
5,GCCGGCGC,-0.245
6,CTGGTTCC,-0.157
7,CTTTTTTC,0.0359
8,CCGATGAA,-0.198
9,TAGCCCGA,-0.201
10,AGAGTCCT,-0.326
11,GATCCTGC,-0.0553
12,CACTTATG,0.0701
13,GACCCAGA,-0.16
14,CCCGAAGC,-0.257
15,TACTGCCA,-0.0579
16,CGCGGGAG,-0.215
17,TCTTCTCA,-0.00235
18,ATTAAAAC,0.129
19,GCGCCAAC,-0.0525
20,ACCAGAGT,-0.256
21,CCGCCGGA,-0.239
22,GCTCACGA,-0.0423
23,GATTGTCC,-0.196
24,ATGCGTGA,0.137
25,ATGCTGTC,0.0727

row,Sequence,PBM E-score
1,AACCAAGC,-0.0985
2,ACAGTTAC,0.102
3,AACCACGC,0.111
4,ACAATATC,0.207
5,CGGTCGGA,-0.233
6,CTATGGTA,-0.155
7,GACCATAA,-0.108
8,CGCGTACA,0.209
9,AGTGCGTC,0.225
10,TAAAGGAA,-0.0286
11,CGTAGACC,0.04
12,AGCGTTCG,-0.105
13,ATAGGGCG,-0.12
14,ATAAGCCA,0.105
15,ACAGGTGG,-0.165
16,CGCCCACA,0.0694
17,ATGCTACA,-0.0758
18,AAGGTAGC,-0.229
19,CCTGCACG,0.00316
20,CGTAAGAA,0.349
21,CTATTGAC,0.131
22,AGAGCTGC,-0.211
23,AGTATAGC,0.0553
24,GATAATCC,-0.195
25,AAGTCCCT,-0.299

row,Sequence,PBM E-score
1,GGAGAAGA,-0.152
2,TCCCCTCA,-0.118
3,CTTTGCTA,0.103
4,GCGTTTAC,0.00205
5,CGCCGTAA,-0.055
6,CTGCTCGA,-0.256
7,AAACTCGA,-0.11
8,CGCGTGCC,-0.0538
9,CAGAAGAC,0.165
10,AGGTCCAG,-0.16
11,TAGCCCCA,-0.118
12,ACCATATG,0.029
13,ACACATGG,0.00953
14,CCCCCTCC,-0.245
15,GTGAGGCA,0.00089
16,CTAAGGAA,0.00302
17,ATGTGCCC,-0.0472
18,GAGAACGC,-0.0995
19,CCTGAGTC,-0.25
20,ACCATGTA,0.142
21,ATTTGGTG,0.0872
22,ATTCCGTA,0.246
23,ATCACCGG,-0.179
24,CTCGCCAA,-0.192
25,GCTTAAAC,-0.133

row,Sequence,PBM E-score
1,CCGCATAG,-0.207
2,CATTACTC,0.184
3,AGGAGCAG,-0.285
4,AAACCATT,0.0296
5,GTAATGAA,0.281
6,ACGCACCC,0.156
7,CTCTGTAC,-0.238
8,ATCAGAAT,0.0915
9,CTACGTTC,0.272
10,AGCCCGCC,-0.17
11,GAACGCTC,-0.17
12,AGCAATCA,0.0445
13,ATATGACC,0.00457
14,CTTCATGA,0.0426
15,CAGCATGG,-0.0841
16,GAAATACC,-0.0276
17,GAAGCCCC,-0.274
18,AGGAGAGG,-0.274
19,AGGCAGGG,-0.179
20,ATAGGAAT,0.0126
21,CAGCGAGC,0.0417
22,GCCCCGCC,-0.13
23,CCTTCATA,0.0985
24,CGTCGTGA,0.15
25,ACTAACGA,0.108

row,Sequence,PBM E-score
1,AGGGGACT,-0.211
2,ACCTTTGG,-0.313
3,GAGTTAGC,-0.0138
4,GTGCGCAA,0.114
5,CGAACGCG,-0.0614
6,TCCCTCGA,-0.331
7,CGTTTCGC,0.0566
8,GCAACTAA,0.0507
9,GTCGTCTA,0.151
10,CAAGAAGC,0.0798
11,AGGCCTCA,-0.209
12,AGTAAACA,0.0928
13,CACCCGGA,-0.145
14,CCCCGGAC,-0.326
15,CAACGGAG,-0.2
16,CTTACAGC,0.11
17,CCACTCAG,-0.212
18,CTTACTAC,0.0969
19,ATCGCCCC,-0.243
20,GGAGGGAC,-0.217
21,CAGGACTG,-0.152
22,ATTTTTGG,-0.147

# Source: the supplement of paper PMC3334620
